This note sets out measurements from article PMC10668032.

Some of the results follow. At the low end of the ranking the order means little.

For this assay, the target named is SIX1-Q177R homeodomain (UniProt Q15475). The assay is described as follows: universal protein binding microarray. As to conditions: Universal all-10-mer PBM (8x60K, AMADID 030236), 300 nM GST-tagged protein, Alexa Fluor 488 anti-GST; buffer, salt, pH and temperature not stated; high values mean tight binding; most listed sequences are background and not binding sites; double strand, one strand shown.
Turning to GACCGTAA, the binding signal was -0.192 E-score.

As to GGCCCGAC, the binding signal is -0.0945 E-score.

CCATTGAA: the binding signal was -0.0388 E-score.

As for AAATACCT, the binding signal was -0.0393 E-score.

Turning to GAAAGCAC, the binding signal turned out to be 0.0259 E-score.

Regarding ACACGTAG, the binding signal stood at 0.325 E-score.

With ACATCTTG, the binding signal was -0.0825 E-score.

For the sequence AGTTCCTA, the binding signal is -0.201 E-score.

As to GGAGTAAC, the binding signal was 0.157 E-score.

For CGGAGCAA, the binding signal was -0.144 E-score.

Turning to AAGACATA, the binding signal was -0.313 E-score.

Take ATTCCCCG: the binding signal is 0.0599 E-score.

As for ATCTGACA, the binding signal turned out to be 0.275 E-score.

Consider TCGCCTAA, for which the binding signal was found to be 0.0318 E-score.

Regarding ACTCATAC, the binding signal was -0.0846 E-score.

On to ATGCTTCA, for which the binding signal is -0.242 E-score.

Turning to AGAAAAGG, the binding signal was -0.165 E-score.

Regarding GCTGAAGC, the binding signal is -0.0212 E-score.

With AACGGAAG, the binding signal is -0.112 E-score.

Take GGCTCCCA: the binding signal was -0.18 E-score.

As for AGTCCTTA, the binding signal was -0.189 E-score.

As for CGAACATA, the binding signal is -0.176 E-score.

As for GGTAAGAA, the binding signal turned out to be 0.00641 E-score.

Turning to GCTTACCC, the binding signal was found to be 0.137 E-score.

Take GCGTACAC: the binding signal is 0.412 E-score.

For the sequence CACCTAGG, the binding signal was 0.225 E-score.

On to ATAGTCAT, for which the binding signal was -0.189 E-score.

Regarding ACTGCTGG, the binding signal is -0.0973 E-score.

On to TGCCCAAA, for which the binding signal is -0.126 E-score.

For GGTGGACA, the binding signal amounted to 0.137 E-score.

ACTATACT: the binding signal was -0.00274 E-score.

As for CACGAGTA, the binding signal was 0.167 E-score.

CGTTTAGA: the binding signal was -0.194 E-score.

Consider CCTCTACA, for which the binding signal was determined as 0.137 E-score.

On to AATGAGCC, for which the binding signal was -0.137 E-score.

In the case of GCACCAAC, the binding signal was 0.261 E-score.

With CACCTGGG, the binding signal came out at 0.279 E-score.

In the case of CTGAGCTC, the binding signal was -0.36 E-score.

For ACGTCTAA, the binding signal is -0.0762 E-score.

As for GAATTCTA, the binding signal was -0.066 E-score.

In the case of AACTACAC, the binding signal came to 0.445 E-score.

For the sequence GTGATGGA, the binding signal was determined as 0.0585 E-score.

CTACGTTA: the binding signal is -0.178 E-score.

Take AAGCGATC: the binding signal was -0.116 E-score.

For the sequence CCCCTTGA, the binding signal turned out to be 0.0744 E-score.

As to ATCAAAAT, the binding signal was -0.167 E-score.

In the case of CGAGTACG, the binding signal came out at 0.19 E-score.

For the sequence ATAGTACC, the binding signal turned out to be 0.113 E-score.

As to GCCTTACA, the binding signal is -0.00121 E-score.

As to ATGCAAAC, the binding signal was -0.182 E-score.

In the case of AAGATTCC, the binding signal was -0.177 E-score.

For ACAACAGA, the binding signal is -0.25 E-score.

As to CCAAGACG, the binding signal was found to be 0.0133 E-score.

For ACGCACGC, the binding signal came out at 0.0323 E-score.

In the case of AAACTCCT, the binding signal is 0.00791 E-score.

With AAGTTACT, the binding signal is -0.193 E-score.

As for CTAGCCTC, the binding signal is -0.137 E-score.

AATGATCT: the binding signal is -0.13 E-score.

For AAGCGCTT, the binding signal was -0.126 E-score.

In the case of AGTCCATA, the binding signal is -0.0407 E-score.

Take ACACTTCA: the binding signal was found to be 0.313 E-score.

Regarding CAAACCGC, the binding signal was -0.21 E-score.

With AAACACGC, the binding signal worked out at 0.336 E-score.

AAATAGCC: the binding signal was -0.146 E-score.

AACGGAAT: the binding signal is -0.18 E-score.

For AATAGGTC, the binding signal was -0.0979 E-score.

Consider GTTTCCAA, for which the binding signal was -0.113 E-score.

Regarding CAACCAAC, the binding signal was -0.0983 E-score.

For the sequence CGCGTTTC, the binding signal is -0.00562 E-score.

Regarding CAATTTCA, the binding signal was -0.256 E-score.

Consider AACAACAG, for which the binding signal is -0.165 E-score.

For the sequence AGCCCCGA, the binding signal was -0.184 E-score.

ACGCGTTA: the binding signal amounted to 0.00453 E-score.

For the sequence GGACATAC, the binding signal was -0.00882 E-score.

Take CACATACA: the binding signal was 0.144 E-score.

In the case of CAGCTAGC, the binding signal is -0.0192 E-score.

In the case of AAACTCAA, the binding signal was -0.0161 E-score.

For the sequence CTCTCAAG, the binding signal is -0.14 E-score.

Regarding CCCTTCAA, the binding signal is -0.0638 E-score.

Take CACCGGAG: the binding signal turned out to be 0.328 E-score.

Regarding CTCAGTCA, the binding signal is -0.12 E-score.

Consider TCTCCCAA, for which the binding signal was -0.0699 E-score.

Turning to AACTATAT, the binding signal was -0.251 E-score.

Turning to AACCTCCG, the binding signal was 0.0373 E-score.

With CAACAAAC, the binding signal came out at 0.0389 E-score.

With GGGTGTAA, the binding signal turned out to be 0.478 E-score.

In the case of GTTAAATA, the binding signal was -0.116 E-score.

As to TCTGGGCA, the binding signal was -0.2 E-score.

Take CTACGGCC: the binding signal was -0.234 E-score.

Take ATGATGTA: the binding signal worked out at 0.0337 E-score.

For the sequence ACTGATTA, the binding signal was -0.134 E-score.

Take ACAAACTC: the binding signal is -0.148 E-score.

On to CCCAAACC, for which the binding signal is -0.118 E-score.

With AGGAGCCT, the binding signal was -0.00543 E-score.

Turning to AGGAGTTC, the binding signal was -0.00571 E-score.

In the case of ATGAAATA, the binding signal is -0.0822 E-score.

As for GCAAGGGC, the binding signal was -0.0889 E-score.

As for GTCCTCTA, the binding signal was -0.018 E-score.

Consider AAGGGGCT, for which the binding signal was found to be 0.0375 E-score.

Take CGACCCAC: the binding signal came to 0.125 E-score.

Regarding CGATACCC, the binding signal was determined as 0.411 E-score.

ACTTGCGC: the binding signal amounted to 0.0481 E-score.

As for ACGCGCTA, the binding signal is -0.179 E-score.

On to GGTTAATA, for which the binding signal turned out to be 0.0583 E-score.

For GGTTCTGA, the binding signal was -0.0741 E-score.

Regarding GACCGGGA, the binding signal was -0.0334 E-score.

As to ACGTTGTA, the binding signal is -0.222 E-score.

As for ACCGTCCA, the binding signal was -0.053 E-score.

On to CTGCGTGA, for which the binding signal was -0.0163 E-score.

As to ACACTCAC, the binding signal was determined as 0.39 E-score.

As to CTCTAAAG, the binding signal is -0.0926 E-score.

On to GAACAGTC, for which the binding signal was -0.167 E-score.

As for CGCGGCGA, the binding signal is 0.118 E-score.

For the sequence AACCTGAG, the binding signal is -0.0169 E-score.

Regarding GAGCGACC, the binding signal is -0.181 E-score.

Turning to AGGCTGCG, the binding signal was -0.0874 E-score.

GAAATACA: the binding signal is -0.00516 E-score.

GGATATTA: the binding signal came to 0.066 E-score.

Regarding AGATGAAC, the binding signal is -0.1 E-score.

As for ATACCCGG, the binding signal is 0.243 E-score.

As for CTTGCGGA, the binding signal was -0.234 E-score.

With GCGTAAGA, the binding signal was -0.174 E-score.

Consider GGACCCAA, for which the binding signal was -0.0477 E-score.

On to GTCCCAAA, for which the binding signal is -0.0441 E-score.

With AGAATTAT, the binding signal turned out to be 0.0382 E-score.

Regarding CCGCTCAA, the binding signal was -0.0414 E-score.

For the sequence GGACTCCA, the binding signal was 0.105 E-score.

As to GATACATC, the binding signal is -0.00797 E-score.

As to GGACTTGA, the binding signal was -0.128 E-score.

In the case of AGAGCCAG, the binding signal was -0.0317 E-score.

GCTCCGCA: the binding signal is -0.185 E-score.

Consider GAACGATA, for which the binding signal was 0.0422 E-score.

As for ACCCCGAG, the binding signal worked out at 0.317 E-score.

Regarding GAAAGCGC, the binding signal is 0.00801 E-score.

Regarding AGTGAGAC, the binding signal is -0.0247 E-score.

In the case of ATGATACG, the binding signal was found to be 0.189 E-score.

Consider CTGGGAAG, for which the binding signal is -0.0929 E-score.

Consider ATACCAGA, for which the binding signal was 0.114 E-score.

Turning to CCGTAAAC, the binding signal turned out to be 0.0103 E-score.

For ATAGCATC, the binding signal is -0.276 E-score.

For the sequence CCGCACGC, the binding signal was -0.0367 E-score.

As for CTGTGAAG, the binding signal was -0.113 E-score.

For the sequence ATAGTAGG, the binding signal came to 0.00996 E-score.

With GCTTGAAA, the binding signal is -0.157 E-score.

Consider ATCTCATG, for which the binding signal stood at 0.00215 E-score.

With ATCCCCAC, the binding signal worked out at 0.211 E-score.

ACCCAACG: the binding signal was 0.0904 E-score.

For the sequence ACGGGTAC, the binding signal was found to be 0.095 E-score.

ATGCGTCC: the binding signal is -0.163 E-score.

As for CTAACTAA, the binding signal was -0.238 E-score.

Turning to AAGGTGTG, the binding signal is 0.369 E-score.

Take CGCCTCTA: the binding signal was 0.0591 E-score.

In the case of AAGTTGAC, the binding signal worked out at 0.0103 E-score.

On to GGTTTGAC, for which the binding signal is -0.0343 E-score.

Regarding AGAACCTC, the binding signal was -0.167 E-score.

AGACCTTC: the binding signal is -0.138 E-score.

For CGGCATCC, the binding signal was determined as 0.089 E-score.

As for GGTGCGAC, the binding signal stood at 0.116 E-score.

As for CGGAAAAA, the binding signal was -0.144 E-score.

In the case of GGCTCATA, the binding signal is -0.201 E-score.

As for CCCGGCCC, the binding signal came to 0.167 E-score.

As to AGTACGAG, the binding signal was -0.178 E-score.

Take CCTAGTGC: the binding signal came out at 0.0947 E-score.

CCGGTTCA: the binding signal amounted to 0.0854 E-score.

Regarding ACACAGCT, the binding signal is 0.148 E-score.

On to CAACACGG, for which the binding signal was determined as 0.38 E-score.

As to GGTCTAGA, the binding signal was found to be 0.028 E-score.

In the case of CGCATGGC, the binding signal was -0.19 E-score.

As to CACGATCC, the binding signal was 0.314 E-score.

Turning to ATCGCGAT, the binding signal is -0.217 E-score.

As for CCTAGAGC, the binding signal is -0.0423 E-score.

As for CCCTCGGC, the binding signal stood at 0.0181 E-score.
